The supplement of paper PMC5919970
Where a name gives a salt, the structure may show the parent alone. In all, about 2,000 compounds were measured (“fractional viability relative to vehicle”: median about 0.91, lowest 2% from about 0.045 on). The list shows a part of the results.

Test system: TYKNU
Assay: fractional viability relative to vehicle; TYKNU is a high-grade serous ovarian cancer line; higher = less growth inhibition
Conditions: 72 h
Outline: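 TYKNU control cells or lentiCRISPRv2 knockout derivatives were plated at 500 cells per well in duplicate into drug-stamped 384-well plates holding a ~2100-compound library at 2 or 10 μM. Culture was in RPMI 1640 with 10% FBS at 37 °C in 5% CO2, with 72 h of drug treatment. Viability was measured by Cell Titer Glo luminescence, and the averaged duplicate treatment wells were normalised to duplicate control wells at the same plate position.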

[1] = 2uM, genotype: DNM1L knockout (sgDNM1L #1)
[2] = 2uM, genotype: sgCTRLA1 (non-targeting control)
[3] = 10uM, genotype: DNM1L knockout (sgDNM1L #1)
[4] = 10uM, genotype: sgCTRLA1 (non-targeting control)

`O=C(Nc1c[nH]nc1-c1nc2ccc(CN3CCOCC3)cc2[nH]1)NC1CC1` showed a fractional viability [1] of 0.346, a fractional viability [2] of 0.4 and a fractional viability [3] of 0.362. The fractional viability [4] was 0.272.
Work on `Cn1cc(-c2ccc(F)c(C(F)(F)F)c2)nc1C1CCN(c2ncnc3[nH]ncc23)CC1` yielded a fractional viability [1] of 0.735, a fractional viability [2] of 0.848 and a fractional viability [3] of 0.331. The fractional viability [4] was 0.583.
For `COC1=C(OC)C(=O)C(CCCCCCCCCCO)=C(C)C1=O` [Idebenone], the fractional viability [1] was 0.901, the fractional viability [2] was 0.996 and the fractional viability [3] was 0.805. It also gave a fractional viability [4] of 1.1.
In the case of `COc1cc(OC)c2c(=O)[nH]c(-c3cc(C)c(OCCO)c(C)c3)nc2c1`, the fractional viability [1] was 1.15, the fractional viability [2] was 1.12 and the fractional viability [3] was 0.973. For the same molecule, the fractional viability [4] was 1.03.
`O=C(c1cccc(Cl)c1F)N1CCN(Cc2cccc(Nc3nccs3)n2)CC1` was tested, and the fractional viability [1] was 0.615, the fractional viability [2] was 0.91 and the fractional viability [3] was 0.436. It also gave a fractional viability [4] of 0.746.
Work on `CC(C)[C@H]1C(=O)N[C@@H](CCCNC(=N)N)C(=O)NCC(=O)N[C@@H](CC(=O)O)C(=O)N[C@H](Cc2ccccc2)C(=O)N1C` [Cilengitide] yielded a fractional viability [1] of 0.804, a fractional viability [2] of 0.833 and a fractional viability [3] of 0.619. It also gave a fractional viability [4] of 0.755.
In the case of `Cc1ccc(C(=O)Nc2ccc(CN3CCN(C)CC3)c(C(F)(F)F)c2)cc1C#Cc1cnc2cccnn12`, the fractional viability [1] was 0.227, the fractional viability [2] was 0.185 and the fractional viability [3] was 0.0344. The fractional viability [4] was 0.0177.
In the case of `O=C(Nc1cccc2c(=O)cc(-c3nnn[nH]3)oc12)c1ccc(OCCCCc2ccccc2)cc1` [Pranlukast], the fractional viability [1] was 1.1, the fractional viability [2] was 0.946 and the fractional viability [3] was 0.927. For the same molecule, the fractional viability [4] was 0.916.
`CC(C)(C)NC[C@H](O)COc1nsnc1N1CCOCC1` [Timolol Maleate] showed a fractional viability [1] of 1.04, a fractional viability [2] of 1.1 and a fractional viability [3] of 1.05. For the same molecule, the fractional viability [4] was 1.03.
`N#Cc1ccc(-c2c(-c3ncn[nH]3)sc(N3CCOCC3)c2C#N)c(F)c1` showed a fractional viability [1] of 0.627, a fractional viability [2] of 0.584 and a fractional viability [3] of 0.282. For the same molecule, the fractional viability [4] was 0.225.
`C=C1c2cccc(O)c2C(=O)C2=C(O)[C@]3(O)C(=O)C(C(N)=O)=C(O)[C@@H](N(C)C)[C@@H]3[C@@H](O)[C@H]12` [Methacycline HCl] gave a fractional viability [1] of 1.23, a fractional viability [2] of 1.3 and a fractional viability [3] of 0.591. It also gave a fractional viability [4] of 0.611.
In the case of `CC(C)(C)c1[nH]cnc1/C=c1\[nH]c(=O)/c(=C/c2ccccc2)[nH]c1=O` [Plinabulin (NPI-2358)], the fractional viability [1] was 0.179, the fractional viability [2] was 0.133 and the fractional viability [3] was 0.261. It also gave a fractional viability [4] of 0.201.
In the case of `Cn1c(=O)cc(N2CCC[C@@H](N)C2)n(Cc2cc(F)ccc2C#N)c1=O` [Trelagliptin], the fractional viability [1] was 0.882, the fractional viability [2] was 1.1 and the fractional viability [3] was 0.859. It also gave a fractional viability [4] of 0.871.
Molecule `COc1cc(/C=C/C(=O)N2CCN(CC(=O)N3CCCC3)CC2)cc(OC)c1OC` [Cinepazide maleate] has a fractional viability [1] of 1.08, a fractional viability [2] of 0.973 and a fractional viability [3] of 1.1. For the same molecule, the fractional viability [4] was 1.02.
In the case of `O=C(Nc1ccc(OC(F)(F)F)cc1)c1sccc1NCc1ccnc2ccccc12`, the fractional viability [1] was 0.926, the fractional viability [2] was 0.906 and the fractional viability [3] was 0.215. For the same molecule, the fractional viability [4] was 0.181.
